Laboratory results: US20090291088A1 (Biogen, published 2009)

Molecular target: T1, human IGF-1R(1-903)-Fc (human, UniProt P08069 31-933)
T1 construct: Made by Biogen Idec; Multimerises through IGF-1R and Fc; also called hIGF-1R-Fc; IGF-1R-Fc; not shown: C-terminal human IgG1-Fc tag
Assay: ELISA, titration of IGF-1 His with and without saturating M13-C06

B1: human IGF-1 His (ligand)
chain: not shown
With B1 the “fold loss in affinity in the presence of M13-C06” value was roughly 50 fold.
